The source gives many values for each of these; only a part stands here.
Key:
Rat [1] = test: concentration in plasma after dosing
Rat [2] = test: concentration in liver after dosing; conditions: 5088 h; dosed: 3,3',4,4',5-pentachlorobiphenyl; 1000 mg/kg; oral; Female; F344
Rat [3] = test: concentration in liver after dosing; conditions: 2880 h; dosed: 3,3',4,4',5-pentachlorobiphenyl; 1000 mg/kg; oral; Female; Harlan Sprague Dawley
Rat [4] = test: concentration in liver after dosing; conditions: 1.5 h; dosed: 3,3',4,4',5-pentachlorobiphenyl; 1000 mg/kg; oral; Female; F344
Rat [5] = test: concentration in liver after dosing; conditions: 2 h; dosed: 3,3',4,4',5-pentachlorobiphenyl; 1000 mg/kg; oral; Female; F344
Rat [6] = test: concentration in liver after dosing; conditions: 288 h; dosed: 3,3',4,4',5-pentachlorobiphenyl; 1000 mg/kg; oral; Female; Harlan Sprague Dawley
Rat [7] = test: concentration in liver after dosing; conditions: 3 h; dosed: 3,3',4,4',5-pentachlorobiphenyl; 1000 mg/kg; oral; Female; F344
Rat [8] = test: concentration in brain after dosing; conditions: 20 min; dosed: 76231-76-0; 3.0 mg/kg; iv; Male; F344
Rat [9] = test: concentration in brain after dosing; conditions: 5 min; dosed: alpha/beta-Thujone mixture; 50 mg/kg; oral; Male; F344
Rat [10] = test: concentration in plasma after dosing; conditions: 3 h; dosed: alpha/beta-Thujone mixture; 25 mg/kg; oral; Male; F344
Rat [11] = test: concentration in plasma after dosing; conditions: 3 h; dosed: 76231-76-0; 3.0 mg/kg; iv; Female; F344
Rat [12] = test: concentration in plasma after dosing; conditions: 0.5 h; dosed: alpha/beta-Thujone mixture; 25 mg/kg; oral; Female; F344
Rat [13] = test: concentration in plasma after dosing; conditions: 0.5 h; dosed: 76231-76-0; 3.0 mg/kg; iv; Female; F344
Rat [14] = test: concentration in brain after dosing; conditions: 1.5 h; dosed: alpha/beta-Thujone mixture; 25 mg/kg; oral; Male; F344
Rat [15] = test: concentration in plasma after dosing; conditions: 1.5 h; dosed: alpha/beta-Thujone mixture; 25 mg/kg; oral; Male; F344
Rat [16] = test: concentration in brain after dosing; conditions: F344
Rat [17] = test: concentration in plasma after dosing; conditions: 1 h; dosed: 76231-76-0; 3.0 mg/kg; iv; Female; F344
Rat [18] = test: concentration in plasma after dosing; conditions: 3 h; dosed: alpha/beta-Thujone mixture; 50 mg/kg; oral; Male; F344
Rat [19] = test: concentration in plasma after dosing; conditions: 6 h; dosed: alpha/beta-Thujone mixture; 25 mg/kg; oral; Male; F344
Rat [20] = test: concentration in brain after dosing; conditions: 10 min; dosed: 76231-76-0; 3.0 mg/kg; iv; Female; F344
Rat [21] = test: concentration in plasma after dosing; conditions: 2 min; dosed: alpha/beta-Thujone mixture; 50 mg/kg; oral; Male; F344
Rat [22] = test: concentration in plasma after dosing; conditions: 10 min; dosed: alpha/beta-Thujone mixture; 25 mg/kg; oral; Male; F344
Rat [23] = test: concentration in brain after dosing; conditions: 10 min; dosed: 76231-76-0; 3.0 mg/kg; iv; Male; F344
Rat [24] = test: concentration in brain after dosing; conditions: 1.5 h; dosed: 76231-76-0; 3.0 mg/kg; iv; Female; F344

Clc1ccc(-c2cc(Cl)c(Cl)c(Cl)c2)cc1Cl [3,3',4,4',5-pentachlorobiphenyl]
concentration in plasma [ng/mL], Rat [1], dosed: 3,3',4,4',5-pentachlorobiphenyl, 1000 mg/kg, oral
Conditions | 7416 h | 8184 h | 8760 h
Female, F344 | 0.0635 | 0.0301 | –
Male, Harlan Sprague Dawley | 0.0339 | 0.0185 | 0.0175

Conditions | concentration in liver [pg/g]
Rat [2] | 847
Rat [3] | 3020
Rat [4] | 2110
Rat [5] | 3870
Rat [6] | 8440
Rat [7] | 10500

CC(C)[C@]12CC(=O)[C@H](C)[C@H]1C2 [alpha-Thujone]
Conditions | concentration in brain [ng/g] | concentration in plasma [ng/mL]
Rat [8] | 989 | –
Rat [9] | 668 | –
Rat [10] | – | 114
Rat [11] | – | 10.1
Rat [12] | – | 280
Rat [13] | – | 99.8
Rat [14] | 191 | –
Rat [15] | – | 125
Rat [17] | – | 23
Rat [18] | – | 160
Rat [19] | – | 42.3
Rat [20] | 2800 | –
Rat [21] | – | 28.5
Rat [22] | – | 423
Rat [23] | 1380 | –
Rat [24] | 55.3 | –

concentration in plasma [ng/mL], Rat [1], dosed: alpha/beta-Thujone mixture, oral, F344
Conditions | 0.5 h | 1.5 h | 2 min | 3 h | 5 min | 6 h | 10 min | 12 h
25 mg/kg, Female | 215 | 118 | 14.1 | 86.5 | 110 | 26.1 | 594 | –
25 mg/kg, Male | 301 | 174 | 102 | 151 | 233 | 55.3 | 321 | 15.8
50 mg/kg, Female | 220 | 304 | 81.3 | 145 | 343 | 97.2 | 645 | 7.09
50 mg/kg, Male | 312 | 178 | 84.2 | 281 | 160 | 121 | 722 | 21.7

Conditions | concentration in brain [ng/g] | concentration in plasma [ng/mL]
Rat [1], 0.25 h, dosed: 76231-76-0, 3.0 mg/kg, iv, Female, F344 | – | 162
Rat [1], 0.5 h, dosed: 76231-76-0, 3.0 mg/kg, iv, Female, F344 | – | 53.6
Rat [1], 0.75 h, dosed: 76231-76-0, 3.0 mg/kg, iv, Female, F344 | – | 29.2
Rat [1], 0.75 h, dosed: 76231-76-0, 3.0 mg/kg, iv, Male, F344 | – | 89.9
Rat [1], 1 h, dosed: 76231-76-0, 3.0 mg/kg, iv, Female, F344 | – | 18.2
Rat [1], 1 h, dosed: 76231-76-0, 3.0 mg/kg, iv, Male, F344 | – | 76
Rat [1], 1.5 h, dosed: 76231-76-0, 3.0 mg/kg, iv, Female, F344 | – | 6.48
Rat [1], 2 h, dosed: 76231-76-0, 3.0 mg/kg, iv, Female, F344 | – | 9.36
Rat [1], 2 h, dosed: 76231-76-0, 3.0 mg/kg, iv, Male, F344 | – | 18.6
Rat [1], 2.5 h, dosed: 76231-76-0, 3.0 mg/kg, iv, Female, F344 | – | 5.48
Rat [1], 3 h, dosed: 76231-76-0, 3.0 mg/kg, iv, Female, F344 | – | 7.31
Rat [1], 4 h, dosed: 76231-76-0, 3.0 mg/kg, iv, Male, F344 | – | 11.3
Rat [1], 5 min, dosed: 76231-76-0, 3.0 mg/kg, iv, Female, F344 | – | 585
Rat [1], 5 min, dosed: 76231-76-0, 3.0 mg/kg, iv, Male, F344 | – | 579
Rat [1], 6 h, dosed: 76231-76-0, 3.0 mg/kg, iv, Male, F344 | – | 18.6
Rat [1], 8 h, dosed: 76231-76-0, 3.0 mg/kg, iv, Male, F344 | – | 9.26
Rat [1], 10 min, dosed: 76231-76-0, 3.0 mg/kg, iv, Female, F344 | – | 253
Rat [1], 10 min, dosed: 76231-76-0, 3.0 mg/kg, iv, Male, F344 | – | 249
Rat [1], 12 h, dosed: 76231-76-0, 3.0 mg/kg, iv, Male, F344 | – | 5.08
Rat [1], 20 min, dosed: 76231-76-0, 3.0 mg/kg, iv, Male, F344 | – | 167
Rat [16], 0.5 h, dosed: alpha/beta-Thujone mixture, 25 mg/kg, oral, Female | 970 | –
Rat [16], 0.5 h, dosed: alpha/beta-Thujone mixture, 25 mg/kg, oral, Male | 582 | –
Rat [16], 0.5 h, dosed: alpha/beta-Thujone mixture, 50 mg/kg, oral, Female | 948 | –
Rat [16], 0.5 h, dosed: alpha/beta-Thujone mixture, 50 mg/kg, oral, Male | 836 | –
Rat [16], 1.5 h, dosed: alpha/beta-Thujone mixture, 25 mg/kg, oral, Female | 748 | –
Rat [16], 1.5 h, dosed: alpha/beta-Thujone mixture, 25 mg/kg, oral, Male | 766 | –
Rat [16], 1.5 h, dosed: alpha/beta-Thujone mixture, 50 mg/kg, oral, Female | 748 | –
Rat [16], 1.5 h, dosed: alpha/beta-Thujone mixture, 50 mg/kg, oral, Male | 543 | –
Rat [16], 2 min, dosed: alpha/beta-Thujone mixture, 25 mg/kg, oral, Female | 215 | –
Rat [16], 2 min, dosed: alpha/beta-Thujone mixture, 25 mg/kg, oral, Male | 20 | –
Rat [16], 2 min, dosed: alpha/beta-Thujone mixture, 50 mg/kg, oral, Female | 451 | –
Rat [16], 2 min, dosed: alpha/beta-Thujone mixture, 50 mg/kg, oral, Male | 114 | –
Rat [16], 3 h, dosed: alpha/beta-Thujone mixture, 25 mg/kg, oral, Female | 562 | –
Rat [16], 3 h, dosed: alpha/beta-Thujone mixture, 25 mg/kg, oral, Male | 353 | –
Rat [16], 3 h, dosed: alpha/beta-Thujone mixture, 50 mg/kg, oral, Female | 276 | –
Rat [16], 3 h, dosed: alpha/beta-Thujone mixture, 50 mg/kg, oral, Male | 463 | –
Rat [16], 5 min, dosed: alpha/beta-Thujone mixture, 25 mg/kg, oral, Female | 552 | –
Rat [16], 5 min, dosed: alpha/beta-Thujone mixture, 25 mg/kg, oral, Male | 553 | –
Rat [16], 5 min, dosed: alpha/beta-Thujone mixture, 50 mg/kg, oral, Female | 548 | –
Rat [16], 5 min, dosed: alpha/beta-Thujone mixture, 50 mg/kg, oral, Male | 212 | –
Rat [16], 6 h, dosed: alpha/beta-Thujone mixture, 25 mg/kg, oral, Female | 112 | –
Rat [16], 6 h, dosed: alpha/beta-Thujone mixture, 25 mg/kg, oral, Male | 45.1 | –
Rat [16], 6 h, dosed: alpha/beta-Thujone mixture, 50 mg/kg, oral, Female | 373 | –
Rat [16], 6 h, dosed: alpha/beta-Thujone mixture, 50 mg/kg, oral, Male | 136 | –
Rat [16], 10 min, dosed: alpha/beta-Thujone mixture, 25 mg/kg, oral, Female | 1970 | –
Rat [16], 10 min, dosed: alpha/beta-Thujone mixture, 25 mg/kg, oral, Male | 540 | –
Rat [16], 10 min, dosed: alpha/beta-Thujone mixture, 50 mg/kg, oral, Female | 2480 | –
Rat [16], 10 min, dosed: alpha/beta-Thujone mixture, 50 mg/kg, oral, Male | 1630 | –
Rat [16], 12 h, dosed: alpha/beta-Thujone mixture, 25 mg/kg, oral, Female | 15.1 | –
Rat [16], 12 h, dosed: alpha/beta-Thujone mixture, 50 mg/kg, oral, Female | 41.2 | –

concentration in brain [ng/g], Rat [16], dosed: 76231-76-0, 3.0 mg/kg, iv
Conditions | 0.25 h | 0.5 h | 0.75 h | 1 h | 1.5 h | 2 h | 4 h | 5 min | 10 min | 20 min
Female | 801 | 173 | 126 | 98.5 | 48.6 | 30.2 | – | 2880 | 1800 | –
Male | – | – | 110 | 102 | – | 43.8 | 32.3 | 2090 | 931 | 504
